# Measured values published in the supplement of paper PMC8728848.
# Some of the results follow.
# Experiments:
# Assay in all cases: glycan array binding signal (z-score within array); higher = stronger binding
# Settings in all cases: glycan notation: IUPAC condensed, linker removed
# [1] = target: Neu5Ac(a2-6)GlcNAc(b1-4)GlcNAc(b1-4)GlcNAc
# In short: (§1)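 The binding signal is a Z-score computed within each array and averaged over linkers. Arrays of the same protein sequence at different concentrations or buffers were also averaged together. Data originate from 3228 arrays in the Consortium for Functional Glycomics database, kept only where the protein sequence was available.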
# Neu5Ac(a2-8)Neu5Ac = target: Neu5Ac(a2-8)Neu5Ac
# In short: as §1
# [2] = target: Neu5Ac(a2-8)Neu5Ac(a2-3)Gal(b1-3)GalNAc(b1-4)[Neu5Ac(a2-3)]Gal(b1-4)Glc
# In short: as §1
# [3] = target: Neu5Ac(a2-8)Neu5Ac(a2-3)Gal(b1-3)GalNAc(b1-4)[Neu5Ac(a2-8)Neu5Ac(a2-3)]Gal(b1-4)Glc
# In short: as §1
# [4] = target: Neu5Ac(a2-8)Neu5Ac(a2-3)Gal(b1-4)Glc
# In short: as §1
# [5] = target: Neu5Ac(a2-8)Neu5Ac(a2-3)Gal(b1-4)GlcNAc
# In short: as §1
# [6] = target: Neu5Ac(a2-8)Neu5Ac(a2-3)[Gal(b1-3)GalNAc(b1-4)]Gal(b1-4)Glc
# In short: as §1
# [7] = target: Neu5Ac(a2-8)Neu5Ac(a2-3)[GalNAc(b1-4)]Gal(b1-4)Glc
# In short: as §1
# [8] = target: Neu5Ac(a2-8)Neu5Ac(a2-8)Neu5Ac
# In short: as §1
# [9] = target: Neu5Ac(a2-8)Neu5Ac(a2-8)Neu5Ac(a2-3)Gal(b1-4)Glc
# In short: as §1
# [10] = target: Neu5Ac(a2-8)Neu5Ac(a2-8)Neu5Ac(a2-3)[Gal(b1-3)GalNAc(b1-4)]Gal(b1-4)Glc
# In short: as §1
# [11] = target: Neu5Ac(a2-8)Neu5Ac(a2-8)Neu5Ac(a2-3)[GalNAc(b1-4)]Gal(b1-4)Glc
# In short: as §1
# [12] = target: Neu5Ac(a2-8)Neu5Ac(a2-8)Neu5Ac(a2-8)Neu5Ac(a2-3)[GalNAc(b1-4)]Gal(b1-4)Glc
# In short: as §1
# [13] = target: Neu5Ac(a2-8)Neu5Gc(a2-3)Gal(b1-4)GlcNAc
# In short: as §1
# [14] = target: Neu5Ac(b2-6)Gal(b1-4)GlcNAc
# In short: as §1
# Neu5Ac(b2-6)GalNAc = target: Neu5Ac(b2-6)GalNAc
# In short: as §1
# [15] = target: Neu5Ac9Ac(a2-3)Gal(b1-4)GlcNAc
# In short: as §1
# [16] = target: Neu5Ac9Ac(a2-6)Gal(b1-4)GlcNAc
# In short: as §1
# [17] = target: Neu5Gc(a2-3)Gal(b1-3)GlcNAc
# In short: as §1
# [18] = target: Neu5Gc(a2-3)Gal(b1-3)[Fuc(a1-4)]GlcNAc
# In short: as §1
# Neu5Gc(a2-3)Gal(b1-4)Glc = target: Neu5Gc(a2-3)Gal(b1-4)Glc
# In short: as §1
# [19] = target: Neu5Gc(a2-3)Gal(b1-4)GlcNAc
# In short: as §1
# [20] = target: Neu5Gc(a2-3)Gal(b1-4)GlcNAc(b1-3)Gal(b1-4)GlcNAc(b1-2)Man(a1-3)[Neu5Gc(a2-3)Gal(b1-4)GlcNAc(b1-3)Gal(b1-4)GlcNAc(b1-2)Man(a1-6)]Man(b1-4)GlcNAc(b1-4)GlcNAc
# In short: as §1
# [21] = target: Neu5Gc(a2-3)Gal(b1-4)[Fuc(a1-3)]GlcNAc
# In short: as §1
# [22] = target: Neu5Gc(a2-6)Gal(b1-4)GlcNAc
# In short: as §1
# Neu5Gc(a2-6)GalNAc = target: Neu5Gc(a2-6)GalNAc
# In short: as §1
# [23] = target: Neu5Gc(a2-8)Neu5Ac(a2-3)Gal(b1-4)GlcNAc
# In short: as §1
# [24] = target: Neu5Gc(a2-8)Neu5Gc(a2-3)Gal(b1-4)GlcNAc
# In short: as §1
# [25] = target: Neu5Gc(a2-8)Neu5Gc(a2-3)Gal(b1-4)GlcNAc(b1-3)Gal(b1-4)GlcNAc
# In short: as §1
# [26] = target: Neu5Gc(a2-8)Neu5Gc(a2-6)Gal(b1-4)GlcNAc
# In short: as §1
# [27] = target: Neu5Gc(b2-6)Gal(b1-4)GlcNAc
# In short: as §1
binder,measurement,setting,value
"CBM13 2a (Mycobacterium tuberculosum), P64849 (protein) DGPVQLKSRLGDVCLDAPSGSWFSPLVINPCNGTDFQRWNLTDDRQVESVAFPGECVNIGNALWARLQPCVNWISQHWTVQPDGLVKSDLDACLTVLGGPDPGTWVSTRWCDPNAPDQQWDSVPLEHHHHHH",glycan array binding signal (z-score),[1],-0.314
same,glycan array binding signal (z-score),Neu5Ac(a2-8)Neu5Ac,-0.302
same,glycan array binding signal (z-score),[2],0.01
same,glycan array binding signal (z-score),[3],-0.313
same,glycan array binding signal (z-score),[4],-0.117
same,glycan array binding signal (z-score),[5],-0.278
same,glycan array binding signal (z-score),[6],-0.141
same,glycan array binding signal (z-score),[7],-0.14
same,glycan array binding signal (z-score),[8],-0.237
same,glycan array binding signal (z-score),[9],-0.224
same,glycan array binding signal (z-score),[10],-0.242
same,glycan array binding signal (z-score),[11],1.39
same,glycan array binding signal (z-score),[12],0.108
same,glycan array binding signal (z-score),[13],-0.117
same,glycan array binding signal (z-score),[14],-0.193
same,glycan array binding signal (z-score),Neu5Ac(b2-6)GalNAc,-0.347
same,glycan array binding signal (z-score),[15],0.861
same,glycan array binding signal (z-score),[16],0.017
same,glycan array binding signal (z-score),[17],-0.266
same,glycan array binding signal (z-score),[18],-0.248
same,glycan array binding signal (z-score),Neu5Gc(a2-3)Gal(b1-4)Glc,-0.166
same,glycan array binding signal (z-score),[19],-0.274
same,glycan array binding signal (z-score),[20],-0.071
same,glycan array binding signal (z-score),[21],-0.351
same,glycan array binding signal (z-score),[22],0.014
same,glycan array binding signal (z-score),Neu5Gc(a2-6)GalNAc,-0.286
same,glycan array binding signal (z-score),[23],-0.174
same,glycan array binding signal (z-score),[24],-0.233
same,glycan array binding signal (z-score),[25],0.24
same,glycan array binding signal (z-score),[26],-0.247
same,glycan array binding signal (z-score),[27],-0.306
